Reference: article PMC6919601, “Identification of Plasmodium dipeptidyl aminopeptidase allosteric inhibitors by high throughput screening” (PLoS ONE, 2019)
Out of some 110,000 compounds screened, about 230 (0.21%) showed an effect of 50% or more. Some of the results follow.

Target: DPAP1 (Plasmodium falciparum, UniProt Q8IIJ9)
Assay: primary screen, percent inhibition; read by cleavage of a fluorogenic dipeptide substrate; higher = more effect of the substance
Design: species or system P. falciparum D10 trophozoite lysates; single well
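Further: 30 min substrate incubation versus DMSO and 10 µM JCP410 controls.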

Sequence of DPAP1 (Q8IIJ9 whole entry, looked up): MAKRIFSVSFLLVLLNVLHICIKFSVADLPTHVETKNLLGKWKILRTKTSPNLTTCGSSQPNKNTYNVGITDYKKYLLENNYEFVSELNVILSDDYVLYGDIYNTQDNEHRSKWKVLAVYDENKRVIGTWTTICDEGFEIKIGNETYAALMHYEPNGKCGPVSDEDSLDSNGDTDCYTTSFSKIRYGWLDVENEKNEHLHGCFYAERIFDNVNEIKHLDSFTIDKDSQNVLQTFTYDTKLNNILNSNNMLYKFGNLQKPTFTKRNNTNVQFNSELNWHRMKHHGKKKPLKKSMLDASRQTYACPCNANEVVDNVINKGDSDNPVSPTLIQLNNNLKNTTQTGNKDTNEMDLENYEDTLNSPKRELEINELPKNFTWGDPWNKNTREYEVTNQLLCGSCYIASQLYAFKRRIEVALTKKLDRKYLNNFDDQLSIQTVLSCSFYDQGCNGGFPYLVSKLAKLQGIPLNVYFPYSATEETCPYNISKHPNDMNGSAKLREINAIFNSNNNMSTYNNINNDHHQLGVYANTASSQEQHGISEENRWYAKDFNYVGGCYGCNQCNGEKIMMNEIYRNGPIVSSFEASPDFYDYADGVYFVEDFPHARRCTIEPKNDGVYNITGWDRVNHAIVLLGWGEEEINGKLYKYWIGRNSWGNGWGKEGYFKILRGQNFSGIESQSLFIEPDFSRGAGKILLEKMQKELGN

| SMILES | % Inhibition @ 10 uM |
| --- | --- |
| COc1ccc(/C=C(/NC(=O)c2ccco2)C(=O)Nc2ccc(C)cc2)cc1 | -4.08% |
| O=C(CN1C(=O)C2C3CCC(C3)C2C1=O)N1CCN(Cc2ccccc2)CC1 (stereo not shown) | -2.3% |
| CCOCCCCNC(=O)c1ccc2c(c1)nc(C)n2-c1cccc(C)c1 | -7.57% |
| COC(=O)C1=C(C)OC(N)=C(C#N)C1c1cc(Cn2cncn2)cs1 (stereo not shown) | 0.895% |
| CCOC(=O)C1CCN(C(=O)c2cccs2)CC1 | -2.78% |
| COc1cc(OC)c(C2C(C(=O)Nc3cccnc3)=C(C)Nc3ncnn32)cc1OC (stereo not shown) | 1.97% |
| Cc1ccc(C2C(C(=O)c3ccc(Cl)cc3)=C(O)C(=O)N2c2cccnc2)cc1 (stereo not shown) | 15.9% |
| Cc1ccc(-c2csc(NC(=O)CN3C(=O)c4ccccc4C3=O)n2)cc1 | -6.08% |
| O=C(c1cnn2c1NC(c1ccc(Br)cc1)CC2C(F)(F)F)N1CCCC1 (stereo not shown) | 1.02% |
| CCOC(=O)N1CCC(Nc2ccc(SC)cc2)CC1 | 3.18% |
| CCN1CCC(C#N)(NC(=O)[C@H](C[C@H](C)c2ccccc2)NC(=O)c2ccc(-c3cc(C(=O)OC)ccc3Cl)cc2)CC1 | 4.33% |
| Cc1[nH]c2ccccc2c1-c1cc2c3c(C)n(C)c(C)c3c(C)nn2c1 | -4.75% |
| COc1cccc(-c2nc3ccc4ccccc4c3c3c2CCC3)c1OC | 1% |
| O=C(CCC1CCCCC1)NC1(C(F)(F)F)N=C(c2ccccc2)NC1=O (stereo not shown) | -4.68% |
| Cc1ccc(S(=O)(=O)N(CC(=O)NC2CC2)c2ccccc2)cc1 | 4.83% |
| COc1cccc(C(=O)Nc2c3c(nn2-c2ccc(C)cc2C)CS(=O)(=O)C3)c1 | 11% |
| CCN1C(=O)C(CC(=O)Nc2c(C)cccc2C)S/C1=N/c1ccc(S(N)(=O)=O)cc1 (stereo not shown) | -18.8% |
| O=C(NCc1ccc2c(c1)OCO2)c1cc(-c2ccccc2)c(N2CCOCC2)s1 | -4.69% |
| CC1OC(Nc2cccc3ccccc23)C(O)C(O)C1O (stereo not shown) | -0.216% |
| O=C(NC(=O)c1ccc2ccccc2c1)Nc1ccc(Br)cc1 | 0.634% |
| Brc1cccc(CN2CCN(c3ccccc3)CC2)c1 | -0.0404% |
| Cc1nnc(NC(=O)CSc2ccc(-c3ccncc3)nn2)s1 | 4.06% |
| COc1cccc(S(=O)(=O)Nc2ccc(C(=O)N3CCCCC3C)cc2)c1 (stereo not shown) | 0.709% |
| CN(c1ccc(C(=O)N2CCC(C(N)=O)CC2)cc1)S(C)(=O)=O | -2.75% |
| Cc1nc(O)c(C(c2cc([N+](=O)[O-])ccc2O)c2c(O)nc(C)nc2O)c(O)n1 | -4.02% |

| SMILES | % Inhibition @ 10 uM |
| --- | --- |
| Cc1ccccc1NC(=O)CN1C(=O)c2cccc3cccc1c23 | 1.69% |
| CCc1ccccc1NC(=O)/C=C/c1cccc([N+](=O)[O-])c1 | 1.08% |
| COc1ccc(C(=O)Nc2ccc(O)cc2)cc1Cl | 10.7% |
| CC(C)OCCCNC(=O)CNC(=S)N1CC2CC(C1)c1cccc(=O)n1C2 (stereo not shown) | 2.79% |
| CC(C)NOC(=O)c1ccc(Cl)cc1 | -2.6% |
| CCNC(=O)c1c(O)c2ccccc2n(C)c1=O | -3.38% |
| O=C(NCc1ccco1)c1ccc(-n2c(-c3ccccc3)nc3cccnc32)cc1 | 0.967% |
| O=C(NC1(C(F)(F)F)C(=O)Nc2c1c(=O)[nH]c(=O)n2-c1ccc(Cl)cc1)c1ccccc1Cl (stereo not shown) | 0.231% |
| O=C(NCc1cccnc1)NCc1noc2ccccc12 | 2.22% |
| Cc1cc(NC(=O)CSCCc2ccncc2)no1 | 4.47% |
| Cc1cc(C)cc(-n2nnc(C(=O)NCCNC(=O)c3nnn(-c4cc(C)cc(C)c4)c3N)c2N)c1 | 7.56% |
| Cc1cc(C)c2nc(N3CCC(C(=O)NC(C)c4ccc5c(c4)OCCO5)CC3)sc2c1 (stereo not shown) | 4.95% |
| CC1CN(C(=O)c2ccccc2F)C(C)CN1C(=O)c1ccccc1F (stereo not shown) | 3.67% |
| Cc1noc2ncnc(N3CCN(Cc4ccccc4)CC3)c12 | 2.76% |
| Cc1ccc2oc(=O)c3cc(C(=O)Nc4cccc(C)n4)sc3c2c1 | -4.94% |
| Cc1ccc(C2C(C(=O)c3ccc(C)o3)=C(O)C(=O)N2c2ncccn2)cc1 (stereo not shown) | -5.31% |
| CC(C)C[C@H](NC(=O)OCC1CCCCC1)C(=O)NCC#N | -6.46% |
| CC(C)Sc1nc2c(c(=O)[nH]c(=O)n2C)n1Cc1cccc(Br)c1 | 0.746% |
| CC1=C(c2ccc(C(C)C)cc2)S(=O)(=O)N=C1NCCc1ccc(Cl)cc1 | 2.27% |
| CCOc1ccc(C(=O)N(Cc2ccc(Cl)cc2)Cc2ccco2)cc1 | -0.45% |
| CCN1CCCC1CNS(=O)(=O)c1cc(-c2cc(C)no2)ccc1C (stereo not shown) | -5.12% |
| CC(C)CCN1CCC(CNS(=O)(=O)c2ccc(-c3ccc(O)nn3)s2)CC1 | -8.65% |
| Cc1nc2c(c(C)c1CCC(=O)NCc1ccc3c(c1)OCO3)c(=O)n(C)c(=O)n2C | 0.44% |
| COc1ccc(C2Sc3ccccc3N=C3C2=C(O)c2ccccc23)cc1 (stereo not shown) | 0.98% |
| COc1ccc(CC(=O)Nc2c(C(=O)N3CCN(c4ncccn4)CC3)oc3ccccc23)cc1 | 4.6% |

| SMILES | % Inhibition @ 10 uM |
| --- | --- |
| COc1ccc(NC(=O)CSCC(=O)Nc2ccccc2F)cc1 | 3.5% |
| CCc1ccc(N2C(=O)C(Cl)=C(Nc3cccc(C(=O)O)c3)C2=O)cc1 | 4% |
| COc1ccc(C(=O)Nc2sc3c(c2C#N)CCC(C)C3)cc1OC (stereo not shown) | 0.317% |
| CCOc1ccc(CNc2ccc(CNc3nc[nH]n3)cc2)cc1 | -1.61% |
| CN1C(=O)C(=CNc2ccccc2Cl)C(=O)N(C)C1=O | 4.07% |
| Cc1ccc(CNC(=O)c2cnc3ccccn3c2=O)cc1 | -1.88% |
| Cc1cc(/C=C2\C(=N)N3N=C(S(=O)(=O)CC(C)C)SC3=NC2=O)c(C)n1-c1ccccc1 | -3.35% |
| Cc1nn(C)c(C)c1CN(C)S(=O)(=O)c1c(C)c(C)c(C)c(C)c1C | -3.45% |
| Cc1ccc(NC(=O)C(C#N)=C2CCCCCC2)cc1 | 0.983% |
| CCn1cc(/C=C(\NC(=O)c2ccccc2)C(=O)NC(C)C)c2ccccc21 | -1.96% |
| Oc1cccc(CN2CCN(c3ccc(F)cc3)CC2)c1 | 3.25% |
| CC(=O)c1ccc(C2CC2)c([N+](=O)[O-])c1 | 5.54% |
| Cc1ccc(CNC(=O)Cn2ncn3c(cc4sccc43)c2=O)cc1 | 3.4% |
| O=C(O)c1ccccc1N1C(=O)c2cccc([N+](=O)[O-])c2C1=O | -3.16% |
| Cc1ccc(-c2nn3c(C)nnc3c3ccccc23)cc1S(=O)(=O)NCC1CCCO1 (stereo not shown) | -0.222% |
| CC(=O)N1CCN(Cc2cc(C)ccc2C)CC1 | -6.82% |
| Cc1nn(C(C)C(=O)NCCCc2ccccc2)c(=O)c2nn(-c3ccccc3)c(C)c12 (stereo not shown) | -0.307% |
| CCC/N=c1\c(NC(=O)Cc2ccc(OC)cc2)c(O)oc2ccccc12 | -4.46% |
| CCN(CC)CCCOc1ccccc1 | -0.906% |
| O=C1CC(N2CCN(c3ccccc3F)CC2)C(=O)N1c1ccc2c(c1)OCCO2 (stereo not shown) | 2.64% |
| Cc1c2cnn(CC(=O)N(C)Cc3ccccc3)c(=O)c2c(C)n1Cc1ccccc1 | 1.22% |
| COC(=O)c1cc(S(=O)(=O)N2CCC(Cc3ccccc3)CC2)cn1C | -6.59% |
| CCCC[C@H](NC(=O)[C@H](Cc1ccc2ccccc2c1)NC(=O)c1cccc(CN)c1)C(=O)COCc1ccccc1 | -3.97% |
| CC(=O)Nc1ccc(NC(=O)C(C)c2ccc(CC(C)C)cc2)cc1 (stereo not shown) | -5.92% |
| OC1(c2ccc(Cl)cc2)CCN(Cc2cccc(Cl)c2)CC1 | 5.99% |

| SMILES | % Inhibition @ 10 uM |
| --- | --- |
| O=c1c2c3n(c4cc(Cl)c([N+](=O)[O-])cc4c-2nn1-c1ccccc1)CCC3 | 2.23% |
| CC1CCCCN1C(=O)C1CC=CCC1C(=O)O (stereo not shown) | 3.94% |
| CC(CCc1ccccc1)NC(=O)c1ccccc1C(=O)O (stereo not shown) | 2.79% |
| CCOc1cc(C2C3=C(CC(C)(C)CC3=O)N(CCOC)C3=C2C(=O)CC(C)(C)C3)ccc1O | 3.47% |
| N#CC1=C2SCN(Cc3ccco3)CN2C(=O)CC1c1cccs1 (stereo not shown) | 47.7% |
| O=C1c2ccccc2-c2nn(C(=O)c3ccncc3)c3cccc1c23 | 2.46% |
| O=C(c1ccc(Br)o1)N1CCN(c2ccc(F)cc2)CC1 | 1.03% |
| NC(=O)c1ccc(NC(=O)c2ccc(COc3ccc(F)cc3)o2)cc1 | -0.63% |
| CCC(C)n1c(=N)c(C#N)cc2c(=O)n3cc(C)ccc3nc21 (stereo not shown) | 0.279% |
| Cn1c(O)cc(=O)nc1SCc1ccc(Cl)cc1 | -0.833% |
| CN1C(=O)c2ccc(NC(=O)COc3ccc(C(C)(C)C)cc3)cc2C1=O | -7.14% |
| OCC1CCCN1C1CCC(c2ccccc2)CC1 (stereo not shown) | -1.75% |
| CCOC(=O)N1CCC(N2CC34C=CC(O3)C(C(=O)O)C4C2=O)CC1 (stereo not shown) | -4.69% |
| C/C=C/COC(=O)C1=C(C)NC(=O)NC1c1ccc(Br)cc1 (stereo not shown) | 5.16% |
| CCOC(=O)Nc1ccc2c(c1)N(C(=O)CN(C)C)c1ccccc1CC2 | -4.26% |
| OCCNc1nc(Nc2ccccc2)nc2ccccc12 | -4.12% |
| COC(=O)c1ccccc1NC(=O)[C@@H]1C2C=CC(C2)[C@@H]1C(=O)O (stereo partly shown) | -6.22% |
| CN(CCNC(=O)NCc1noc2ccccc12)Cc1ccccc1 | 6.84% |
| O=C(Nc1ccccc1)c1cc(S(=O)(=O)N2CCOCC2)c(Cl)cc1Cl | 3.65% |
| Cc1cc(C)nc(NC(=O)NS(=O)(=O)Nc2cc([N+](=O)[O-])ccc2C)n1 | -7.68% |
| CCn1c(NCc2ccncc2)nc2ccccc21 | 0.032% |
| COc1ccc(-c2c(C)nn3c(N4CCC(C(=O)NCCN(C)C)CC4)cc(C)nc23)cc1OC | -0.138% |
